This note sets out measurements from paper PMC4336329 (PLoS ONE, 2015).

In all, about 310,000 compounds went through this assay and about 2,200 (0.71%) showed an effect of 50% or more. Effects have a minus sign here. The list shows a part of the results.

Sequence of human ether-à-go-go-related gene (hERG) potassium channel (Q12809 whole entry, looked up): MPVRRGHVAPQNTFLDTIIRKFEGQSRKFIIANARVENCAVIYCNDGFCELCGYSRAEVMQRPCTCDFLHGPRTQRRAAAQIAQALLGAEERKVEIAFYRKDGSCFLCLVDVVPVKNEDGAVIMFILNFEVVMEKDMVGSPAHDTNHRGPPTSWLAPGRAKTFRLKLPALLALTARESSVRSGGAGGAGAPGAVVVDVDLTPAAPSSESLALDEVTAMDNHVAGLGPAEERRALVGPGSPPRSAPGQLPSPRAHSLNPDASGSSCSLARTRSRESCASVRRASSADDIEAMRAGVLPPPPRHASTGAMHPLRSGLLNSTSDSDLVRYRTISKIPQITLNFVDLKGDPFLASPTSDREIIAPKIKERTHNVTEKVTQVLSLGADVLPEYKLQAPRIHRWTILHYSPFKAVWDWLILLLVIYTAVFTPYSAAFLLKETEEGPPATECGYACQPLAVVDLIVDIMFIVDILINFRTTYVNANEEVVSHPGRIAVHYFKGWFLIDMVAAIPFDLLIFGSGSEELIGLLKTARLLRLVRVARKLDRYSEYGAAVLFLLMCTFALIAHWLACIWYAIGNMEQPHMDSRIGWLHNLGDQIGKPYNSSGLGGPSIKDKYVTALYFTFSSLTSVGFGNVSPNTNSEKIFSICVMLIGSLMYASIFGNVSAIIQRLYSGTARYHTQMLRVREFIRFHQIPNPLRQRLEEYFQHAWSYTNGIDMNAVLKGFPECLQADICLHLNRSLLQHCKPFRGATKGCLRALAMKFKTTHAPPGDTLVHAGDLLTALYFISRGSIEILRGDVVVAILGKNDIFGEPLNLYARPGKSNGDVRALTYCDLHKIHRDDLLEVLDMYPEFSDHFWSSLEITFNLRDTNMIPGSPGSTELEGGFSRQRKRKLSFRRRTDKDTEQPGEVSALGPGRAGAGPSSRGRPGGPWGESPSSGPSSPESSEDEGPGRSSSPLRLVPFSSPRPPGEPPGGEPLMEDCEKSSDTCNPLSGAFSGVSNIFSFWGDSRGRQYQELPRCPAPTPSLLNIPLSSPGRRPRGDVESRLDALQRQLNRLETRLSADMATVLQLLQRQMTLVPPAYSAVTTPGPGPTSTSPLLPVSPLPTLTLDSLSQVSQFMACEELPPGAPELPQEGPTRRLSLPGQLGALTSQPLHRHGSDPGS

The experiment concerns the target human ether-à-go-go-related gene (hERG) potassium channel (human, UniProt Q12809). As to the kind of experiment: primary screen, population patch clamp on CHO cells stably expressing hERG.
Take `CCOC(=O)c1cnn(-c2nc(SC)nc3sc4c(c23)CCC4)c1N`: the “hERG current change (%, negative = inhibition) at 1uM” value is on record as 5.94%.
Turning to `COc1ccc(OC)c(NS(=O)(=O)c2ccc(Cl)nc2)c1`, the “hERG current change (%, negative = inhibition) at 1uM” value turned out to be 8.04%.
For the molecule `COc1ccc(-c2oc3ccc(N4CCOCC4)cc3c2C#CC2(O)CCCCC2)cc1`, the “hERG current change (%, negative = inhibition) at 1uM” value was found to be 11.8%.
Next, `Cc1ccccc1Cn1cc(NS(=O)(=O)c2cn(C)nc2C)cn1`: 14.5%; `CCCC(=O)Nc1nc2c(c(=O)[nH]1)CCCC2`: 14.2%; `COc1ccnc(Oc2ccc(F)cc2)c1C(=O)N/C=N/OCc1ccc(F)cc1Cl`: 12.6%.
Regarding `O=[N+]([O-])c1ccc(N2CCN(C(=S)Nc3ccccc3)CC2)cc1`, the “hERG current change (%, negative = inhibition) at 1uM” value was 5.2%.
Under `CCc1ccc(NC(=O)C(C)Nc2ccc(S(=O)(=O)NC(C)=O)cc2)cc1` (stereo not shown) stands 6.91%; under `N#CC(C#N)=C(N)Nc1cccc(Cl)c1`, 11.3%; under `N#C/C(=C(/O)CCl)c1nc2ccccc2[nH]1`, 1.42%.
Next, `Cc1ccc(NC(=O)c2cc(=O)c3ccccc3o2)cc1S(=O)(=O)N1CCOCC1`: 9.18%; `O=C(OCC(=O)N1c2ccccc2Sc2ccccc21)c1ccc[n+]([O-])c1`: 4.24%.
Under `COc1ccc(NS(=O)(=O)c2ccc(NC(=O)c3ccc(N(C)S(C)(=O)=O)cc3)cc2)c(OC)c1` stands 14%; under `CS(=O)(=O)N(CC(=O)NCCSCc1c(F)cccc1Cl)c1ccc2c(c1)OCO2`, 7.52%.
As to `O=S(=O)(NCC(c1cccnc1)N1CCN(c2ccc(F)cc2)CC1)c1cc(F)ccc1F` (stereo not shown), the “hERG current change (%, negative = inhibition) at 1uM” value is -11.8%.
Take `c1c2c(cc3sc(N4CCCCC4)nc13)OCO2`: the “hERG current change (%, negative = inhibition) at 1uM” value stood at 15.9%.
With `O=[N+]([O-])c1ccc(N2CCN(S(=O)(=O)c3ccccc3)CC2)cc1`, the “hERG current change (%, negative = inhibition) at 1uM” value is reported as -13.5%.
Next, `Cc1cc(N=Cc2c(O)n(-c3cccc(C(F)(F)F)c3)c(=O)c3ccccc23)no1`: 8.56%; `Cc1cc(=O)n2nc(N3CCCC(C(=O)NC4CCCCC4C)C3)sc2n1` (stereo not shown): 17.9%; `O=C(Oc1ccc2c(c1)O/C(=C\c1ccncc1)C2=O)c1ccccc1`: 6.52%.
Turning to `Cc1nn(CCCC(=O)NCCc2ccc(Cl)cc2)c(=O)c2nn(-c3ccccc3)c(C)c12`, the “hERG current change (%, negative = inhibition) at 1uM” value is recorded as 15.9%.
Under `C=CCC(=O)N1CCCC(CO)(Cc2ccc(F)cc2F)C1` (stereo not shown) stands 7.29%; under `CS/C(=N\NC(N)=O)c1ccccc1`, -3.95%; under `Cc1ccc2c(=O)cc(C(F)F)oc2c1`, -1.85%.
Regarding `O=C1NC(CCc2ccccc2)C(=O)N1CCOc1ccccc1` (stereo not shown), the “hERG current change (%, negative = inhibition) at 1uM” value was found to be 8.3%.
Next, `Cl.Fc1cccc(Cl)c1CNCCCSc1ncccn1`: 11%; `Oc1ccc(Cl)cc1CNc1cccc2cccnc12`: 20.8%.
Next, `COc1ccccc1CCC(=O)OCC(=O)Nc1ccc2[nH]c(=O)[nH]c2c1`: 10.5%.
With `CC(=O)OC1N=C(c2ccccc2)c2cc(C)ccc2NC1=O` (stereo not shown), the “hERG current change (%, negative = inhibition) at 1uM” value is on record as -2.45%.
Next, `O=C(COc1ccccc1F)Nc1ccc2c(c1)OCCO2`: 16.1%; `CC(C)[C@H](N)c1nnc(SCC(=O)c2ccc(Cl)cc2)o1.Cl`: 7.94%; `O=C(O)Cn1cc(/C=C2\C(=O)NC(=O)N(c3ccc(Br)cc3)C2=O)c2ccccc21`: 15.5%.
In the case of `O=C(c1ccccc1)c1ccc(C(=O)N2CCN(c3ccc(F)cc3)CC2)o1`, the “hERG current change (%, negative = inhibition) at 1uM” value is recorded as -49.4%.
Under `COc1ccc(-c2cc(C(=O)Nc3ccccc3O)c3ccccc3n2)cc1OC` stands 10.3%.
Under `O=C(NCC1CCCO1)c1ccc(CS(=O)(=O)c2c(Cl)cccc2Cl)o1` (stereo not shown) stands 4.53%; under `C/C=C(/C)C(=O)O[C@@H]1[C@H](OC(=O)C=C(C)C)c2c(ccc3ccc(=O)oc23)OC1(C)C`, 11.2%; under `COc1ccccc1Nc1ncnc2sccc12`, 14.2%.
With `CC(C)C(=O)NCCc1nc2ccccc2n1CCCOc1ccc(Cl)cc1`, the “hERG current change (%, negative = inhibition) at 1uM” value was -1.93%.
Regarding `NC(=O)c1ncn([C@@H]2O[C@H](CO)[C@@H](O)[C@H]2O)n1`, the “hERG current change (%, negative = inhibition) at 1uM” value is on record as 25.8%.
Next, `COc1ccc(CCCNC(=O)C2CCC(=O)N(CCCN3CCCC3=O)C2)cc1` (stereo not shown): 14.6%; `O=C(CN(c1cccc(C(F)(F)F)c1)S(=O)(=O)c1ccc(Cl)c([N+](=O)[O-])c1)NCc1ccccc1Cl`: -1.08%.
Consider `COc1ccc(NC(=O)CCN2C(=O)[C@@H]3[C@H](C2=O)[C@H]2C=C[C@@H]3C2)cc1`, for which the “hERG current change (%, negative = inhibition) at 1uM” value was found to be 11.1%.
For the molecule `CC(C)(C)NC(=O)C1CC(=O)OC12CCOC(C)(C)C2` (stereo not shown), the “hERG current change (%, negative = inhibition) at 1uM” value is 17.1%.
As to `O=C(NCC1CCCO1)C1CC(c2ccc(Cl)c(Cl)c2)=NO1` (stereo not shown), the “hERG current change (%, negative = inhibition) at 1uM” value was 4.3%.
As to `Cc1cc(C(=O)OCC(=O)N2CCCC2)c2ccccc2n1`, the “hERG current change (%, negative = inhibition) at 1uM” value was determined as 4.28%.
On to `O=C(CSc1n[nH]c(-c2ccncc2)n1)c1ccccc1`, for which the “hERG current change (%, negative = inhibition) at 1uM” value amounted to 12.9%.
As for `COCCCn1c(=O)c2ccccc2n(CC(=O)NC2CCCCC2)c1=O`, the “hERG current change (%, negative = inhibition) at 1uM” value is recorded as 14.1%.
Next, `CCN1CCN(c2ccc(S(=O)(=O)N3CCOCC3)cc2NC(=O)CC(C)C)CC1`: 5.72%.
Regarding `O=C(N/N=C(\CC(=O)c1cccs1)C(F)(F)F)c1ccncc1`, the “hERG current change (%, negative = inhibition) at 1uM” value was 0.112%.
Under `COc1cccc(CN2CCNC(=O)C2CC(=O)NC2CCCC2)c1OC` (stereo not shown) stands 6.62%.
Consider `CC1CCN(C(=O)CSc2nc(C3CC3)nc3ccccc23)CC1`, for which the “hERG current change (%, negative = inhibition) at 1uM” value worked out at 4.72%.
Under `CCOC(=O)C1CCCN(c2c(NCCCN(CC)c3ccccc3)c(=O)c2=O)C1` (stereo not shown) stands -9.35%; under `O=C(O)CCc1ccc(-c2ccccc2)n1Cc1ccco1`, 1.58%.
Turning to `CC(C)CN(CC(C)C)c1ccc(/C=N/n2cnnc2)cc1[N+](=O)[O-]`, the “hERG current change (%, negative = inhibition) at 1uM” value was 4.48%.
Next, `CCOc1ccc(CCNC(=O)COC(=O)CCC(=O)c2cccs2)cc1OCC`: -2.59%; `O=C1Cc2ccccc2Sc2ccc(Cl)cc21`: 14.5%; `O=C1N[C@@H](Cc2ccccc2)C(=O)N2[C@H]1C[C@]1(Br)c3ccccc3N(S(=O)(=O)c3ccc(F)cc3)[C@H]21`: 14.2%.
Next, `COCC1=C(C(=O)OC)C(c2ccco2)n2ncnc2N1` (stereo not shown): 18.2%.
Under `CSCCC(=O)NC1CC(C)(C)Cc2c1cnn2-c1ccccc1C` (stereo not shown) stands 10.8%; under `O=C(Nc1ccccc1-c1ccccc1)C(c1ccccc1)c1ccccc1`, 18.6%; under `Cl.O=C(CS(=O)CC(=O)Nc1cnc2ccccc2c1)Nc1ccc(Cl)cc1` (stereo not shown), 2.52%.
As for `CCOc1ccc2nc(NCCO)[nH]c2c1`, the “hERG current change (%, negative = inhibition) at 1uM” value was 10.9%.
Next, `O=C(c1ccc(Br)o1)N1CCN(c2ccccc2F)CC1`: 5.97%; `COc1ccc(/C=N/n2cnc3scc(-c4cccs4)c3c2=O)cc1OC`: 5.91%; `Cc1cc(C)nc(S/C=C/C(=O)c2ccccc2F)n1`: 5.68%.
Next, `COc1ccc(CN(CC2CCC(C(=O)O)CC2)C(=S)Nc2cc(C)cc(C)c2)cc1` (stereo not shown): 16.9%; `COc1ccccc1C(CC(=O)Nc1ccc(C)c(C)c1)c1ccc(OC(C)C)cc1` (stereo not shown): 8.24%.
Next, `CN(C)S(=O)(=O)c1ccc(N2CCCC2)c(C(=O)NNC(=O)COc2ccccc2Cl)c1`: -6.2%; `CCCN1Cc2cccc(C(=O)NCc3ccccc3)c2C1=O`: -4.44%.
On to `COc1ccc(NC(=S)N2C3CCC2CC(NC(=O)NC24CC5CC(CC(C5)C2)C4)C3)c(OC)c1` (stereo not shown), for which the “hERG current change (%, negative = inhibition) at 1uM” value is 17.3%.
Next, `C=C(C)CN(CC)Cc1c(C(=O)N(C)CCCC)nc2ccccn12`: -9.75%; `c1ccc2c(c1)CCc1ccccc1C2=C1CCNCC1`: 10.5%; `COc1cccc(CNc2nc3ccc(C)cc3n3cnnc23)c1`: 10.5%.
Next, `N#CCCN(C(=O)COC(=O)c1ccc2c(c1)OCO2)c1ccccc1`: 0.0284%.
Under `Cc1cccc(C)c1NC(=O)CN(C)C(=O)CN1C(=O)NC(C)(C)C1=O` stands 12.1%; under `Cc1cccc(C)c1NC(=O)N1CC=CCC1`, 12.7%; under `COCc1c(C(=O)N/N=C\c2cccnc2)nnn1-c1nonc1N`, 9.27%.
As for `CN1CC(=O)N/C1=N\C(=O)Nc1ccc2c(c1)N(C)C(=O)CS2`, the “hERG current change (%, negative = inhibition) at 1uM” value is given as -1.82%.
Consider `COc1cccc(CNCCc2c[nH]c3ccccc23)c1OCc1ccccc1F.Cl`, for which the “hERG current change (%, negative = inhibition) at 1uM” value is -11.1%.
As to `O=C(CCCNS(=O)(=O)c1cccs1)N1CCc2ccccc2C1`, the “hERG current change (%, negative = inhibition) at 1uM” value was 1.14%.
Next, `Cc1ccc(C)c(-n2c(SCC(=O)Nc3nonc3C)nnc2-c2ccoc2C)c1`: 9.3%; `Cc1ccc2nc(N(CCCN(C)C)C(=O)CCc3ccccc3)sc2c1.Cl`: -2.33%.
Next, `Cc1nccn1-c1ncnc2sc3c(c12)CCCC3`: 4.86%; `COC(=O)Cc1csc(Nc2ccccc2)n1`: 8.24%.
Under `COc1ccc(OC)c(C2C(C#N)=C(N)Oc3c2c(C)nn3-c2cccc(Cl)c2)c1` (stereo not shown) stands 7.28%; under `COc1ccc(-c2[nH]ncc2-c2cscn2)c(O)c1`, -0.759%.
For the molecule `COc1ccc(NC(=S)Nc2cnc3ccccc3c2)c(OC)c1`, the “hERG current change (%, negative = inhibition) at 1uM” value was determined as 2.49%.
For the molecule `CCCc1[nH]n(-c2ccc(F)cc2)c(=O)c1C=Nc1ccc(C)cc1`, the “hERG current change (%, negative = inhibition) at 1uM” value is recorded as 5.18%.
